# Measurements: the supplement of paper PMC8728848
# The list shows a part of the results.
# What was measured:
# Assay in all cases: glycan array binding signal (z-score within array); higher = stronger binding
# Settings in all cases: glycan notation: IUPAC condensed, linker removed
# [1] = molecular target: Neu5Ac(a2-8)Neu5Ac
# In short: (§1)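 Negative Z-scores can be read as non-binding. The Z-score is calculated within each array and then averaged across arrays of one protein sequence at different concentrations or buffers and across linkers. Arrays, 3228 in all, were curated from the Consortium for Functional Glycomics database and kept only where the protein sequence was available.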
# [2] = molecular target: Neu5Ac(a2-8)Neu5Ac(a2-3)Gal(b1-3)GalNAc(b1-4)[Neu5Ac(a2-3)]Gal(b1-4)Glc
# In short: as §1
# [3] = molecular target: Neu5Ac(a2-8)Neu5Ac(a2-3)Gal(b1-3)GalNAc(b1-4)[Neu5Ac(a2-8)Neu5Ac(a2-3)]Gal(b1-4)Glc
# In short: as §1
# [4] = molecular target: Neu5Ac(a2-8)Neu5Ac(a2-3)Gal(b1-4)Glc
# In short: as §1
# [5] = molecular target: Neu5Ac(a2-8)Neu5Ac(a2-3)Gal(b1-4)GlcNAc
# In short: as §1
# [6] = molecular target: Neu5Ac(a2-8)Neu5Ac(a2-3)[Gal(b1-3)GalNAc(b1-4)]Gal(b1-4)Glc
# In short: as §1
# [7] = molecular target: Neu5Ac(a2-8)Neu5Ac(a2-3)[GalNAc(b1-4)]Gal(b1-4)Glc
# In short: as §1
# [8] = molecular target: Neu5Ac(a2-8)Neu5Ac(a2-8)Neu5Ac
# In short: as §1
# [9] = molecular target: Neu5Ac(a2-8)Neu5Ac(a2-8)Neu5Ac(a2-3)Gal(b1-4)Glc
# In short: as §1
# [10] = molecular target: Neu5Ac(a2-8)Neu5Ac(a2-8)Neu5Ac(a2-3)[Gal(b1-3)GalNAc(b1-4)]Gal(b1-4)Glc
# In short: as §1
# [11] = molecular target: Neu5Ac(a2-8)Neu5Ac(a2-8)Neu5Ac(a2-3)[GalNAc(b1-4)]Gal(b1-4)Glc
# In short: as §1
# [12] = molecular target: Neu5Ac(a2-8)Neu5Ac(a2-8)Neu5Ac(a2-8)Neu5Ac(a2-3)[GalNAc(b1-4)]Gal(b1-4)Glc
# In short: as §1
# [13] = molecular target: Neu5Ac(a2-8)Neu5Gc(a2-3)Gal(b1-4)GlcNAc
# In short: as §1
# [14] = molecular target: Neu5Ac(b2-6)Gal(b1-4)GlcNAc
# In short: as §1
# [15] = molecular target: Neu5Ac(b2-6)GalNAc
# In short: as §1
# [16] = molecular target: Neu5Ac9Ac(a2-3)Gal(b1-3)GlcNAc
# In short: as §1
# [17] = molecular target: Neu5Ac9Ac(a2-3)Gal(b1-4)GlcNAc
# In short: as §1
# [18] = molecular target: Neu5Ac9Ac(a2-6)Gal(b1-4)GlcNAc
# In short: as §1
# [19] = molecular target: Neu5Gc(a2-3)Gal(b1-3)GlcNAc
# In short: as §1
# [20] = molecular target: Neu5Gc(a2-3)Gal(b1-3)[Fuc(a1-4)]GlcNAc
# In short: as §1
# [21] = molecular target: Neu5Gc(a2-3)Gal(b1-4)Glc
# In short: as §1
# [22] = molecular target: Neu5Gc(a2-3)Gal(b1-4)GlcNAc
# In short: as §1
# [23] = molecular target: Neu5Gc(a2-3)Gal(b1-4)GlcNAc(b1-3)Gal(b1-4)GlcNAc(b1-2)Man(a1-3)[Neu5Gc(a2-3)Gal(b1-4)GlcNAc(b1-3)Gal(b1-4)GlcNAc(b1-2)Man(a1-6)]Man(b1-4)GlcNAc(b1-4)GlcNAc
# In short: as §1
# [24] = molecular target: Neu5Gc(a2-3)Gal(b1-4)[Fuc(a1-3)]GlcNAc
# In short: as §1
# [25] = molecular target: Neu5Gc(a2-6)Gal(b1-4)GlcNAc
# In short: as §1
# [26] = molecular target: Neu5Gc(a2-6)GalNAc
# In short: as §1
# [27] = molecular target: Neu5Gc(a2-8)Neu5Ac(a2-3)Gal(b1-4)GlcNAc
# In short: as §1
# [28] = molecular target: Neu5Gc(a2-8)Neu5Gc(a2-3)Gal(b1-4)GlcNAc
# In short: as §1
# [29] = molecular target: Neu5Gc(a2-8)Neu5Gc(a2-3)Gal(b1-4)GlcNAc(b1-3)Gal(b1-4)GlcNAc
# In short: as §1
# [30] = molecular target: Neu5Gc(a2-8)Neu5Gc(a2-6)Gal(b1-4)GlcNAc
# In short: as §1
# [31] = molecular target: Neu5Gc(b2-6)Gal(b1-4)GlcNAc
# In short: as §1
binder,measurement,setting,value
Epa22 (Candida glabrata) (protein) MGSSHHHHHHSSGLVPRGSHMKRALSSQNPFGYPIGCSPQSTNVIPGLTMELYSYPIVSGTPPNCYDASYVDPEYPRTGYLKRKMIGKSTGVTGSLNYKFSVEKACMVKYGNLPAGYNYNEPLTVSNFTMLLYGYFKPQTSGIHTFFVNADDLLYINFGAGNAFDCCKREDSKFKLGEYVAYDIWHVDSSKNKVSLNLEKDVYYPIRMFFNNIGKDSSLDLSFSVNGAVEHITDFSGYLYSVPDQPDACPAPIGYDTTCK,glycan array binding signal (z-score),[1],-0.352
same,glycan array binding signal (z-score),[2],-0.322
same,glycan array binding signal (z-score),[3],-0.003
same,glycan array binding signal (z-score),[4],-0.157
same,glycan array binding signal (z-score),[5],-0.191
same,glycan array binding signal (z-score),[6],-0.345
same,glycan array binding signal (z-score),[7],-0.322
same,glycan array binding signal (z-score),[8],-0.353
same,glycan array binding signal (z-score),[9],-0.38
same,glycan array binding signal (z-score),[10],-0.369
same,glycan array binding signal (z-score),[11],-0.401
same,glycan array binding signal (z-score),[12],-0.364
same,glycan array binding signal (z-score),[13],-0.344
same,glycan array binding signal (z-score),[14],-0.428
same,glycan array binding signal (z-score),[15],-0.413
same,glycan array binding signal (z-score),[16],-0.366
same,glycan array binding signal (z-score),[17],-0.368
same,glycan array binding signal (z-score),[18],-0.23
same,glycan array binding signal (z-score),[19],-0.393
same,glycan array binding signal (z-score),[20],-0.403
same,glycan array binding signal (z-score),[21],-0.398
same,glycan array binding signal (z-score),[22],-0.411
same,glycan array binding signal (z-score),[23],-0.398
same,glycan array binding signal (z-score),[24],-0.382
same,glycan array binding signal (z-score),[25],-0.332
same,glycan array binding signal (z-score),[26],-0.418
same,glycan array binding signal (z-score),[27],-0.251
same,glycan array binding signal (z-score),[28],-0.296
same,glycan array binding signal (z-score),[29],-0.313
same,glycan array binding signal (z-score),[30],-0.224
same,glycan array binding signal (z-score),[31],-0.282
